# Data reported in the supplement of paper PMC11417369.
# Some of the results follow.
# Test system: PF3D7_0420300 AP2 domain 1 (GST-tagged)
# Experiment: gcPBM binding intensity (ln(normalized median fluorescence intensity)); higher = stronger DNA binding
# Summary of the method: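 Alexa488 anti-GST antibody, scanned at 488 nm, detected GST-tagged P. falciparum DNA-binding domains that had been expressed in E. coli and incubated for 1 h on an Agilent 4 × 180k array. The array carried primer-extended double-stranded 36-bp intergenic genomic probes and negative controls. Binding intensity is the highest Masliner-normalised natural-log median intensity across replicate spots of either orientation of each probe.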
row,Sequence,gcPBM binding intensity (ln)
1,ACAGGATTGGTTCAAACACACATATTATAGGACTAT [CACACA_site6455],9.44
2,AAAAAAAAATCATATTGTACGTAAAAAAAAAAAAAA [XGTACX_site476],9.03
3,AATATGTTTTGTTAGGTTGGTGTTGGTAGAATGTTT [CACACA_negctrl_site1563],9.35
4,CAATATATTTGATTTACACACTTACAATGTATTTAA [CACACA_site5632],9.35
5,CGAAAAAATAAAAAAAAAATAAAATAAAATAAATAA [TGCATGCA_negctrl_site278],9.19
6,AATTAAATGATTTATACATGCATATAAATATAAATA [TGCATGCA_site579],9.09
7,TCTGTAAATATGTATACACACATATATGATCAATAT [CACACA_site3234],9.42
8,AGTAGAAAAGGAACATGTACGAATTAAAAAAATAAT [XGTACX_site2347],9.62
9,ACATATATATATATATATATATATATATTTATTTAT [CACACA_negctrl_site734],9.03
10,TACACCATGATACATACACACAGACATATACACATT [CACACA_site6601],9.8
11,AAAAAACATTTGATCTGTACGCATAGACAATTATAT [XGTACX_site960],9.13
12,TAAAAGAAAGCACATACACACACAAAAAAAAAAAAG [CACACA_site8159],10.2
13,AATAATATGTTATCTCTTACACATATAAAAAATAAA [XGTACX_negctrl_site370],9.05
14,TGTTATATCAATAATATATAATAATACCCTTCTTTT [CACACA_negctrl_site1682],9.06
15,TTATAACATATAAACATGTTTCATCTTACGTATTTT [GTGCAC_negctrl_site694],9.45
16,ATATTTAATTTGTATGGTACAGTACGATCTTTCTTT [XGTACX_site5533],9.3
17,ATAAGAATATATAGAGTGCGTTGAAGAATTATAATA,9.43
18,CCCTCAACGAATTTGAGTACACATTTTAAATGATAT [XGTACX_site7763],9.14
19,ATCGCAAGATTAATATAAGGAGAAACGTTTATATAT [GTGCAC_negctrl_site267],9.13
20,AAAAAAAAAAGAAACACACACATATAGATTTATAAC [CACACA_site6927],10
21,AATCTAGGTATTTATACACACTAAAATAATATACGA [CACACA_site4515],9.42
22,AAAAAATTAACCGTAACACACACACCGATATATATA [CACACA_site9312],10.1
23,ATTTAAATAATATTCACACACAAAATTAAATTTTAA [CACACA_site6246],9.44

row,Sequence,gcPBM binding intensity (ln)
1,GCTCTAATTAATATTTGTACACACATATTTAACCTA [XGTACX_site6808],9.73
2,TTTTTTTTTTTTTTTTGTACATAATTCCATATTTTT [XGTACX_site1789],8.74
3,TGATCTTTACACATATTATATATATATAAAAAAAAA [XGTACX_negctrl_site360],8.83
4,TTTAATAAATAAATAAATAAAATATATTAAAAACCA [CACACA_negctrl_site80],9.16
5,ATATTTTATTATTGTTGTACTTTTTTTTTTTGATTG [XGTACX_site4091],9.24
6,ATAATATGAAAACACACACACACACTAATAAAAAAA [CACACA_site8617],10.2
7,GGCAACAATGTAGATTGTACATATGAATTTTACAAT [XGTACX_site5655],9.15
8,ATATATATTATCATTGTGCACTTATTTATATACCTT,9.53
9,ATATTTTGTTTTATAGTGCACATGGGCATATATTAA [GTGCAC_site9435],9.19
10,TTTACTTTTTTTTCTTGTACTCATACATACTATCAT [XGTACX_site4919],9.38
11,AAATTTCAATAATCTACACACATAAAAAAACAAAAG [CACACA_site1702],9.86
12,TGAATAATATACATACGTACATACATATATATAATA [XGTACX_site1302],9.13
13,ATAAAAAGGAAACACACACACACACCCATATATATA [CACACA_site904],10.2
14,TTATCACATAAACGATGTACGTACTAGGTTTTTTTT [XGTACX_site2147],9.37
15,TTTTTTTTTTTTTTTTTTTTCATTCAATTATATTTA [CACACA_negctrl_site712],8.33
16,AACTAATATAATAATACATGCACATAAAAATATATA [TGCATGCA_site606],9.52
17,AAAGGAATATAATGATGTACACAAATATATATACAT [XGTACX_site5347],9.53
18,CACGCATACGGACACACACACACACCGATATATATA [CACACA_site4521],10.3
19,TATTTTTTTATTTGTGCATGTCATATTTAAACATAA [TGCATGCA_site1006],9.21
20,ATATAAAAATTAAAATGTACATATCTTATTATAATA [XGTACX_site983],9.13
21,GTTTAAAAAAATTATCAACTTTAAAAAGGTAACATT [XGTACX_negctrl_site203],8.99
22,CAACATAAAAATTAAGCATGCAATAGACTTGTGTTG [TGCATGCA_site417],9.54
23,TAATAAAATAATATCACACATATTTATATATATTAT [CACACA_site5814],9.23

row,Sequence,gcPBM binding intensity (ln)
1,GTAGTAAATAGGAGGATGCATATGGCACACATTATA [TGCATGCA_negctrl_site59],9.41
2,CCATAAAAAGGATACACACACACACCGACATATATA [CACACA_site4653],10.2
3,GTATTATATTTCAACTGTACGTAAAACTATTAAAAT [XGTACX_site3679],9.22
4,CAAAAAAATGTGAAGGCATGCAAATATGTAAAATAA [TGCATGCA_site921],9.76
5,ATAAAGCCATACAATACACACATTTTACATGGGGGT [CACACA_site9072],9.72
6,TTCATTTAGCAAGAATGTACTTATATATATATATAT [XGTACX_site3401],9.12
7,ATTTGTAATTTATATTCACACATTCAAAAAAATGAG [CACACA_site6057],9
8,TATAAATTTGTTGTTGCATGCAGTATACCAAAAAAA [TGCATGCA_site445],9.17
9,AAAAATATAATATAATGTACACAAAAAAAAAAAAAT [XGTACX_site4914],9.6
10,TAAAATGTAATCTGAACACACATATTTTTTTAATAT [CACACA_site1768],9.29
11,AATAGCCCATATGGAATACACACTGAAAATAAAAAA [CACACA_site3373],9.54
12,AATTATTTATCGGAATGTACATAAAAACATATGTAT [XGTACX_site7443],9.2
13,AATAATATCATTTAGACACACACTCTTACAATATGT [CACACA_site8832],9.55
14,TATTTAATAAAGAAATAAAAATAAAGAAAAAAAAAA [CACACA_negctrl_site74],9.16
15,ACCTACATAACATACACACGCATATATATAATTTTA [CACACA_site2847],9.64
16,CTTTCTTATTTGAACGCATGCATTTGTACCTTTTAT [TGCATGCA_site671],9.36
17,CATGCAAAAAATTCCACACACACACCCACATATAAA [CACACA_site1229],9.92
18,TATATACAAAATGCCTGTACATATATATTTATTTAT [XGTACX_site761],9.36
19,ATATATATATATATAGTGCAAATATCTTCTTTATAA,9.17
20,TAATAAACCAAACTAAACAATATATCAAAAAGCACA [CACACA_negctrl_site269],9.75
21,TATTATATCGAACACTGTACTTTTTTATTCAACCTA [XGTACX_site493],9.32
22,GCCTTTTTATTTAGAACACACACAAAAAAAAAAAAA [CACACA_site8520],9.3
23,GTATATAAGTATATATGTACATATATTTTATATATA [XGTACX_site4745],9.12

row,Sequence,gcPBM binding intensity (ln)
1,ATATAAGAATAAATAGTGCAAAATAAATGATTATTT,9.46
2,AATACGAAGGATAAGAGTACTAATTAAATAAATGAA [XGTACX_site523],9.5
3,TTTTTTTTTTTTTTGGTGCGATCTTTTAAATGATCC,8.69
4,TTTTATAATTTAAAATAATGAAACTTCTTTCTATTT [TGCATGCA_negctrl_site324],8.97
5,TTTCTGATATTTTTATATTTTCTTATATATATATAT [GTGCAC_negctrl_site652],9.36
6,TTTAAATTTTAATATGCACACAAAATGTTATATTAA [CACACA_site8015],9.15
7,TACAAATACATTACATGTACATATTTAATAATATCA [XGTACX_site2075],9.19
8,TTTTCAATTAATAATACACACATGTATATATTATTA [CACACA_site3311],9.21
9,AAGAAAAATATATATATAAATAAATAAATATATATA [TGCATGCA_negctrl_site330],9.11
10,TTTGAAAAGTATGAGGTGCAAAAAATGTAATGAAAT,9.38
11,CATTTTAAAACAGACACACACCAAAAAAAAAAAAAA [CACACA_site6259],9.4
12,TTTTTCTGTCGTTGTTGTACTTGAGGAGTAACAATT [XGTACX_site7852],9.25
13,TATATTATTATGCATAGTACGTACTGTGATAAGAAT [XGTACX_site2956],9.28
14,TTTTTTTTTTTTTTTTGTACATAATTATATATTTAC [XGTACX_site7540],8.91
15,TAGTATTATTATTATGCACACAAAAATATTTATACA [CACACA_site9219],9.36
16,AGCATTTCTTTTACATGTACATAATATTTTTAATAA [XGTACX_site1968],9.37
17,AAAAAAAAAAAAAAAAAAATAAAAAATAAATAAATA [CACACA_negctrl_site1498],8.88
18,TATATATGTATGTATGCATGCCCTTTTTTAAAAAAA [TGCATGCA_site434],9
19,AAGAAAAAACAAACATGTACACATAATTTAGTTTTT [XGTACX_site3121],9.25
20,AATGTATTAAAATTACGTACATATGCACATTTTATA [XGTACX_site5046],9.3
